Results reported in patent US20250205353A1 (SYNAFFIX B V, published 2025).

Biological target: T1, Nectin-4 on SK-BR-3 cells (UniProt Q96NY8 32-510, limits assumed)
T1 sequence (looked up): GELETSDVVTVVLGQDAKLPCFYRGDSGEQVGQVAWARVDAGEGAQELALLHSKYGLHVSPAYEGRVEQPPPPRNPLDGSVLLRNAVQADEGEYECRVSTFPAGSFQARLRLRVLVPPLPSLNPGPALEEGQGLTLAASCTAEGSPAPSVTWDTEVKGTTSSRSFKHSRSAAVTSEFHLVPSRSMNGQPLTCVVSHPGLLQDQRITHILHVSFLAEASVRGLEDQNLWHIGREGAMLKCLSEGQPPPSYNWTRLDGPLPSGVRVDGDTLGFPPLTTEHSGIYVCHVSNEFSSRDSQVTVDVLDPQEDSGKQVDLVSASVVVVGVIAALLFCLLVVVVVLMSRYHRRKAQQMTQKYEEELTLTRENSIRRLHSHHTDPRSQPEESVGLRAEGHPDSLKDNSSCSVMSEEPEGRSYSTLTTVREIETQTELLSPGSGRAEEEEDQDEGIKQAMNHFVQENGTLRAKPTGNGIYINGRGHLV
Experiment: cell-based or functional assay

B1: B12-3 (other)
heavy: QVQLVQSGAEVKKPGASVKVSCQASGYRFSNFVIHWVRQAPGQRFEWMGWINPYNGNKEFSAKFQDRVTFTADTSANTAYMELRSLRSADTAVYYCARVGPYSWDDSPQDNYYMDVWGKGTTVIVSS[here human IgG1 constant region without letters]
light: EIVLTQSPGTLSLSPGERATFSCRSSHSIRSRRVAWYQHKPGQAPRLVIHGVSNRASGISDRFSGSGSGTDFTLTITRVEPEDFALYYCQVYGASSYTFGQGTKLERKRTVAAPSVFIFPPSDEQLKSGTASVVCLLNNFYPREAKVQWKVDNALQSGNSQESVTEQDSKDSTYSLSSTLTLSKADYEKHKVYACEVTHQGLSSPVTKSFNRGEC
modifications: linker-payload 3 (BCN-HS-PEG2-HS-(va-PAB-Ex)2, exatecan) clicked to 6-N3-GalNAc on the trimmed core GlcNAc of the heavy-chain glycan; average DAR 3.75
notes: negative control; also called conjugate B12-3; control ADC B12-3
IC50 (nM), in vitro cytotoxicity on SK-BR-3 cells (ATPlite luminescence): > 100 nM
